Data reported in PubChem BioAssay (Tox21).
Where “and” joins values, the source holds several entries; their conditions need not be identical. Identical values can stand only once. The inconclusive results got no clear call from the source; some entries with a clear call stand among them for comparison. For some of these results: Potencies of inconclusive entries are doubtful fits and often do not repeat. A structure can be active in one record and inactive in another. Calls of active or inactive are those of the source. Unless noted, the call rests on the fitted dose curve; in most records, active means well fitted curve in the direction sought with a large enough effect in the repeat runs; inconclusive means weak or mixed curves; inactive means no such curve, though single readings can be large; an effect the other way counts as inactive or inconclusive.

Assays:
[1] = qHTS RealTime-Glo MT Cell Viability Assay in HEK293 cells - 24 hour (AID 1224886); further: top concentration of the series differs between compounds; on the % scale 0 is the no-effect control and ±100 the full control effect; nearly all actives have a fitted effect of over 50% in size
Method in brief: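 HEK293 cells seeded with NanoLuc/prosubstrate reagent, rested 5 h at 37 C, then dosed and kept at 37 C up to 40 h. Nonlytic real-time luminescence from viable cells read at 0, 8, 16, 24, 32 and 40 h.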

[2] = target: Estrogen receptor beta (Homo sapiens) (UniProt Q92731); experiment: qHTS assay to identify small molecule antagonists of the estrogen receptor beta (ER-beta) signaling pathway (AID 1259378; active means well fitted inhibition curve with a large enough effect in the signal ratio in the repeat runs, not every such curve was filed as active; inconclusive means weak or mixed curves, or effect the other way; inactive means no such curve, though single readings can be large or run the other way; the % refers to the signal ratio; further: on the % scale 0 is the no-effect control and ±100 the full control effect); conditions: ER-beta-UAS-bla HEK293T, beta-lactamase FRET ratio, 16 h; activity, negative = inhibition: at 92.4 µM (top of the series) unless noted
Method in brief: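 ER-beta-UAS-bla HEK293T (GripTite) cells in 2% charcoal-stripped FBS medium were preincubated 6 hr at 37C, dosed with compound, then stimulated with 1 nM E2 (final) for 16 hr; beta-lactamase reporter read by B/G FRET fluorescence after 2 hr substrate loading.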

[3] = qHTS RealTime-Glo MT Cell Viability Assay in HEK293 cells - 8 hour (AID 1224887); further: potency means the concentration at half of the fitted maximal effect; nearly all actives have a fitted effect of over 50% in size
Method in brief: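 Viable HEK293 cells reduce a cell-permeant prosubstrate; the product diffuses out and is consumed by NanoLuc in the medium to give light. Compounds went in after a 5 h incubation and plates were read over the treatment course.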

[4] = qHTS RealTime-Glo MT Cell Viability Assay in HepG2 cells - 0 hour (AID 1224889); further: potency means the concentration at half of the fitted maximal effect; nearly all actives have a fitted effect of over 50% in size
Method in brief: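 HepG2 cells (600/well) were dispensed with RealTime-Glo reagents, incubated 5 h at 37 °C, then treated with compounds in DMSO for up to 40 h. Nonlytic NanoLuc luminescence reflecting viable cells was read at each stated time point.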

[5] = qHTS assay to identify small molecule antagonists of the estrogen receptor alpha (ER-alpha) signaling pathway using the BG1 cell line in the presence of 0.1 nM 17-beta-estradiol - cell viability counter screen (AID 1259241); further: potency means the concentration at half of the fitted maximal effect; nearly all actives have a fitted effect of over 40% in size
Method in brief: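 Viability in VM7Luc4E2 cells after 22 hr compound exposure under 0.1 nM 17beta-estradiol stimulation, by CellTiter-Fluor.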

[6] = qHTS assay to identify small molecule antagonists of the androgen receptor (AR) signaling pathway using the MDA cell line in the presence of 0.5 nM R1881 - cell viability counter screen (AID 1259242); further: nearly all actives have a fitted effect of over 45% in size; further: potency means the concentration at half of the fitted maximal effect
Method in brief: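 Viability of MDA-kb2 cells was multiplexed with the luciferase AR readout; after 16 hr with compounds and R1881 at 0.5 nM final, CellTiter-Fluor fluorescence was recorded.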

[7] = target: Estrogen receptor (Homo sapiens) (UniProt P03372); experiment: qHTS assay to identify small molecule antagonists of the estrogen receptor alpha (ER-alpha) signaling pathway using the BG1 cell line in the presence of 0.1 nM 17-beta-estradiol (AID 1259244); further: potency means the concentration at half of the fitted maximal effect; nearly all actives have a fitted effect of over 50% in size
Method in brief: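 Estradiol at 0.1 nM (final) stimulates the endogenous ER-alpha of VM7Luc4E2 cells carrying an ERE-driven luciferase; compounds are co-incubated 22 h at 37C and luciferase output quantified by luminescence.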

[8] = qHTS assay to identify small molecule phospholipidosis (PLD) inducers (AID 1259344; active means well fitted curve in the direction sought with a large enough effect; inconclusive means small, poorly fitted or top-dose-only effect, or another doubt; inactive means no such curve, though single readings can be large; an effect the other way counts as inactive or inconclusive; further: potency means the concentration at half of the fitted maximal effect)
Method in brief: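 HepG2 cells grown on collagen I take up LipidTOX Red while exposed to compound for 24 h; after fixation they are imaged at 20x and pit metrics are extracted.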

[9] = qHTS assay to identify small molecule agonists of the sonic hedgehog signaling (Shh) pathway - cell viability counter screen (AID 1259366)
Method in brief: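 Stable Gli1-Luc NIH/3T3 clone, 2,000 cells/well. Compound exposure 24hr at 37C. Read-out: CellTiter-Fluor fluorescence.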

[10] = qHTS assay to identify small molecule antagonists of the sonic hedgehog signaling (Shh) pathway (AID 1259369; calls by dose curve; further: nearly all actives have a fitted effect of over 45% in size; further: potency means the concentration at half of the fitted maximal effect)
Method in brief: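 For antagonist detection, the reporter line received test compounds together with conditioned medium, incubated 24hr at 37 C, 5% CO2, then luminescence was recorded following 30min room-temperature luciferase reagent incubation.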

[11] = qHTS assay to identify small molecule agonists of the androgen receptor (AR) signaling pathway in the presence of an antagonist - cell viability counter screen (AID 1259379); further: potency means the concentration at half of the fitted maximal effect; nearly all actives have a fitted effect of over 25% in size
Method in brief: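 Seed MDA-kb2 at 3,000 cells/well; incubate 5 hr, 37C, 0% CO2. Add nilutamide to 3.0uM final, then pin compounds at 15 concentrations. Incubate 16 hr. Add CellTiter-Fluor at 15 hr, read fluorescence after 1 hr.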

[12] = A CellTox Green Cytotoxicity Assay to monitor cytotoxicity in HEK293 cells - 16 hour (AID 1224888); further: potency means the concentration at half of the fitted maximal effect; nearly all actives have a fitted effect of over 35% in size
Method in brief: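 Fluorescence intensity, read at 0, 8, 16, 24, 32 and 40 h of compound treatment, reflected dye binding to DNA of dead HEK293 cells; compounds (23 nL, DMSO) were added 5 h after plating cells with reagent.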
Tags describe the fitted curve by direction and shape.

UniProt Q92731, sequence (Q92731 whole entry, looked up): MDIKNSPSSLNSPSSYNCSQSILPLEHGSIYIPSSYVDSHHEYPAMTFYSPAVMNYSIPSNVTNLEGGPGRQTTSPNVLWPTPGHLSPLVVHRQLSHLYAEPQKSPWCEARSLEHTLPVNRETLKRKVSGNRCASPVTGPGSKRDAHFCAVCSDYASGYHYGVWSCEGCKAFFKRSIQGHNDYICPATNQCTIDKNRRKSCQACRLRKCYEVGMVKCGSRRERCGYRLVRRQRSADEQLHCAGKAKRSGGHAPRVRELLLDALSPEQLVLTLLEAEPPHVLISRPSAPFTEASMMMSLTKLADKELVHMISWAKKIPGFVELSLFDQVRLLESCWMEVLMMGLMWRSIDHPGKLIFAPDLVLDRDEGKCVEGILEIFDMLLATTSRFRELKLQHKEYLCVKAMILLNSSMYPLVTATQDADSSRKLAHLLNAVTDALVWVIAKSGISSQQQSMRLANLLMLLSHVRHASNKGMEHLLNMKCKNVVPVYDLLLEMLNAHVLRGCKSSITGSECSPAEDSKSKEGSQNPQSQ
UniProt P03372, sequence (P03372 whole entry, looked up): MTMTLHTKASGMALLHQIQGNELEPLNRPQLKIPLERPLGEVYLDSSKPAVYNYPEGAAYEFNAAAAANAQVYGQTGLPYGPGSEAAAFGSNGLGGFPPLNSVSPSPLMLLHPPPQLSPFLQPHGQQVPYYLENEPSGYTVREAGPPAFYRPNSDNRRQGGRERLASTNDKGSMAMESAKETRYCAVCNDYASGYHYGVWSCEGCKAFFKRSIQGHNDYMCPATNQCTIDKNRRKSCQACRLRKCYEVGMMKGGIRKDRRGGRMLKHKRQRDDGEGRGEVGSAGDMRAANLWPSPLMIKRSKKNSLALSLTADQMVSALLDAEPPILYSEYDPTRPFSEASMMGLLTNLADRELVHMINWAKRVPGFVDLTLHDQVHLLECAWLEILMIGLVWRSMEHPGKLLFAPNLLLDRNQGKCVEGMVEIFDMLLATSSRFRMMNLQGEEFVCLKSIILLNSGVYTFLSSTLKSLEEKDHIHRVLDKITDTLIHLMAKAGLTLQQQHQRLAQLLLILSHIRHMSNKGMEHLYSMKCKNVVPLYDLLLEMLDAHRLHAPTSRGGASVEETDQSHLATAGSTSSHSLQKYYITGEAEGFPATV

## Cc1cc(Cl)ccc1OCCCC(=O)O
[1]
  Potency: inactive
[2]
  activity, negative = inhibition: inconclusive: 1.16% and inconclusive: 15.7%

## O=c1[nH]c2ccccc2n1C1CCN(CCCC(c2ccc(F)cc2)c2ccc(F)cc2)CC1
[3]
  Potency: active: 15.5 µM and inconclusive: 16.9 µM [cytotoxic, partial curve]
[4]
  Potency: inconclusive: 34.7 µM [cytotoxic, partial curve, poor fit]
[5]
  Potency: inconclusive: 27.3 µM [cytotoxic, partial curve] and inconclusive: 9.44 µM [cytotoxic, partial curve, poor fit]
[6]
  Potency: active: 54.5 µM
[7]
  Potency: inconclusive: 29.8 µM [inhibitor, partial curve]
[8]
  Potency: inconclusive: 5.01 µM [activator, single point]
[9]
  Potency: inconclusive: 33.5 µM [cytotoxic, single point]
[10]
  Potency: inconclusive: 7.7 µM [inhibitor, full curve] and inconclusive: 29.8 µM [inhibitor, single point]
[11]
  Potency: active: 24.3 µM and inconclusive: 33.5 µM [cytotoxic, single point]

## CNP(=O)(OC)Oc1ccc(C(C)(C)C)cc1Cl (stereo unspecified)
[3]
  Potency: inconclusive: 43.6 µM [cytotoxic, partial curve]

## C1=Cc2cccc3cccc1c23
[3]
  Potency: inconclusive: 38.2 µM [rising, partial curve]
[12]
  Potency: inconclusive: 49 µM [activator, partial curve]
[6]
  Potency: inactive
[10]
  Potency: inconclusive: 37.9 µM [inhibitor, partial curve, poor fit] and inactive
